# Laboratory results: the supplement of paper PMC11417369
# ± gives the standard deviation of the averaged measurements. This is one part of the list.
# Test system: PfAP2-EXP AP2 domain (GST-tagged)
# Assay: gcPBM binding intensity (ln(normalized median fluorescence intensity)); higher = stronger DNA binding
# Summary of the method: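 DNA-binding domains from P. falciparum, fused to GST and produced in E. coli, were put on an Agilent 4 × 180k double-stranded probe array for 1 h in 1× PBS holding 1% milk, 0.2 mg/ml BSA, 0.5% salmon testes DNA and 0.03% Triton X-100. Probes were primer-extended, 36 bp long and drawn from intergenic genomic regions, with negative controls included. After Alexa488 anti-GST antibody detection and a 488 nm scan, binding intensity was set as the highest Masliner-normalised natural-log median intensity across replicate spots of either probe orientation.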
row,Sequence,gcPBM binding intensity (ln)
1,TCTATTTTTCTAATTTGTACATAGCTTTGAGTTAGT [XGTACX_site8977],8.71 ± 0.5
2,AACTTCTTTTTTATAACACACAAAATATATATACAA [CACACA_site282],8.69 ± 0.42
3,AGATAAAATATATACACACACATAAATACGTACAAA [CACACA_site1086],9.12 ± 0.45
4,AAAAGAATGAAACATAATAAATTACATTAAAATAAT [CACACA_negctrl_site897],8.42 ± 0.33
5,AATAAATAAATAAGTACACACATATATATATATATA [CACACA_site284],10.2 ± 0.6
6,GGCATACACAGACACACACACACACCCACATATATA [CACACA_site591],8.79 ± 0.4
7,TAATTATCACATTGCACACACATTTCCTTTTACATT [CACACA_site3443],9.05 ± 0.38
8,ATTTTTTTATTTTGTGCACACACATAAAAATATATA [CACACA_site762],8.89 ± 0.12
9,AAATTATTATGAAATGGAAAATGCATAAATTGTTTT [XGTACX_negctrl_site206],8.63 ± 0.48
10,ATTAAATAATAATAATGTACGTATTATATTAATACA [XGTACX_site5439],8.43 ± 0.17
11,TAAAATTTAAAATATACACACAAAAAGTTATTACAA [CACACA_site4080],8.4 ± 0.47
12,ATTCTTTACTCATAAAATTATATTATATAAACTTTT [XGTACX_negctrl_site554],8.61 ± 0.49
13,CTCTTTAAAAATATGGGTACAAAAAAAAAAAAAATA [XGTACX_site6185],8.5 ± 0.58
14,AGGCCCTATGTTGTTACACACATAGAATGATACATC [CACACA_site1266],8.53 ± 0.35
15,AAAACAGTGACAACTCGTACTTATATTTTTTTTTGT [XGTACX_site4968],8.42 ± 0.41
16,AAAGTACAATCATAATCACACGTGTCTATTATATAC [CACACA_site8103],8.65 ± 0.42
17,CAAAGATAAAATGATGCACACAAAAGGGTGTAATAT [CACACA_site8499],8.9 ± 0.35
18,TATATTTATTTATATGTATGCATGTCTGTATATGCT [TGCATGCA_site339],8.57 ± 0.45
19,ACATGGTTTACACGTGCATGTGGATGACTGGACATT [TGCATGCA_site640],8.93 ± 0.29

row,Sequence,gcPBM binding intensity (ln)
1,TTTTCTTTTAATATTTTTAATAATTATATTTTGAAA [XGTACX_negctrl_site495],8.34 ± 0.47
2,TGAGAAAATTAAAAGGTGCTCAGAAATTTTATATTA [GTGCAC_site9954],8.45 ± 0.33
3,AATACGACAAACAAATGTACAAATAAATATTCGCGT [XGTACX_site6427],9.02 ± 0.58
4,AAAAATGTAAAGTGCGTGCACAAAATATTTGGAAAA,9.06 ± 0.28
5,AAATTACTAATGTGCACACATACTAACGTTTAAATA [CACACA_site3572],8.94 ± 0.16
6,TATCTGTATTTATATACACACATATTCTTTTTACAC [CACACA_site4798],8.75 ± 0.33
7,AAAATCACAAAACACACACACACAAAAAAAAAAAAA [CACACA_site1443],8.12 ± 0.6
8,CACATATAGTTATATGCACACATCTTACACATATAT [CACACA_site3692],8.74 ± 0.33
9,CATGGGCAAATATTCTCACACATAAACATAAACATA [CACACA_site4597],8.46 ± 0.61
10,AAAAAAGTAAAAAAAGCACACACGAAAAAAAATAAA [CACACA_site2233],8.93 ± 0.7
11,ATGGTGCAACATTATGCACACCGTTAAATAACTAAT [CACACA_site9280],8.99 ± 0.36
12,GTTTGAAGAACTATAAATGTATAAATAAAAGTTTAG [TGCATGCA_negctrl_site222],8.31 ± 0.42
13,ATATAGTAAAATTATACACACATGAATTTTCCCATG [CACACA_site1770],8.48 ± 0.49
14,GGGAATTATGAAAAAAGTACAGAACAAAAGTAAAAG [XGTACX_site2861],9.06 ± 0.47
15,ATTACATGATATATCACACACACATATAAATATATA [CACACA_site2830],8.73 ± 0.41
16,CATATATATATATATACACACACACCGTCCGTGTTA [CACACA_site8975],8.64 ± 0.35
17,TTTTTTTTTTTTTTTTGTACTCATAAAAATATATTA [XGTACX_site3458],8.31 ± 0.46
18,TACAAAAATGAAAAAAGTACATATCATTTAATATAA [XGTACX_site8066],8.46 ± 0.4
19,ATATGTATTTATATATGTTTGAATTTTTTTTTTTTT [CACACA_negctrl_site5],8.15 ± 0.35

row,Sequence,gcPBM binding intensity (ln)
1,GTTCGAAGTATAATTTGTACATATAAAATGGTTCCC [XGTACX_site382],8.48 ± 0.42
2,GAATAAATAAATAAATGTACATATATATTTATTTAT [XGTACX_site243],8.34 ± 0.36
3,ATTTGATCAACAAAACGTACACATATTTTCATGTGT [XGTACX_site447],8.44 ± 0.37
4,TAGTTTTCTTAAAGATGTACTTATTAAAAATAAACT [XGTACX_site1001],8.13 ± 0.17
5,TATAGATAAATTATTTGTACTTATAAAATTATTATA [XGTACX_site2870],8.11 ± 0.38
6,AATGATTGATTTTATTGTACGTACTCGGAATATGGT [XGTACX_site4976],8.74 ± 0.4
7,GAATTTTAAATAAACATATAAACAGAAAAAAAAAAA [TGCATGCA_negctrl_site149],8.55 ± 0.37
8,AACCTCATGGACATATGTACACATATACAATTATTT [XGTACX_site6533],8.77 ± 0.33
9,TTATCTTACATATATCATTAAATCATATAACAAAAA [XGTACX_negctrl_site517],8.24 ± 0.41
10,TTATGTATTTTAAATGGTTTTATTATAAAGTTTAAT [CACACA_negctrl_site1470],8.27 ± 0.37
11,CACAAATATACAAATACACACAAATATACGCATATA [CACACA_site2384],8.61 ± 0.48
12,GTTATATTTAAAATAGTGCAATAAAAATAATAATAT,8.89 ± 0.2
13,CCTTTATAATTGGAAACACACATATAAAGTATATAT [CACACA_site3900],8.38 ± 0.43
14,ATATAATATATATACAAACACACAATTGTGTCCACA [CACACA_site1748],8.85 ± 0.33
15,AAAATACATGGACACACACACACACCGATATATATA [CACACA_site5885],8.87 ± 0.42
16,TACATAACTTTAATCACACACAAACAAACACATACA [CACACA_site6235],8.81 ± 0.61
17,AAATATACATATATATGTACATATAAATATATTTTA [XGTACX_site5266],8.38 ± 0.33
18,TCTTACAAGGAACTAATAAAATTGTAGTTTGTATTT [CACACA_negctrl_site386],8.16 ± 0.33
